We go through 167 variants from the RNAGym collection of RNA variant scans (doi:10.7554/elife.90254).

The labels stand for the following.
B1: OR4K15 (parent)
chain: GUUAACGGUCAUAGGCCAUGGAAACUAGGAGCACCAUUUCGCUGCCAGUGAAGAAAUGAACAAAGAAAAUCUGGGCCAGGCAGGCAUCAAAAGAAAUAGUCUUGCGCUCAACCAGAAAGUCUGUAAUCAUUUUAAGGGUA
B2: LINE1-mini (parent)
chain: GGCAGAGCUCAACACAGCGUGGCAAAGUGGCUGUGGCUAGACUGCC

The source gives no read counts; variants with many changes may rest on few reads.

One data set covers variants of B1. Nature of the data set: self-cleavage, relative activity (ratio to wild type); higher = more cleavage; in vitro, sequencing; the parent is a self-cleaving ribozyme.
Take U108C U122C U127C: the self-cleavage stood at 0.

In the case of A117G A118G U130C U131C, the self-cleavage was 0.43.

Consider U108C A114U A118G, for which the self-cleavage stood at 0.03.

Take C112U A114U A117G: the self-cleavage is 0.02.

On to A114G A117G U127C, for which the self-cleavage came out at 0.09.

Turning to U108C A129U U130C, the self-cleavage came out at 0.

Consider A111G U130C A135G, for which the self-cleavage stood at 0.

With C105U A118G U131C, the self-cleavage was 0.01.

As to A116G A117G U130C, the self-cleavage was 0.63.

In the case of U122C U139C A140U, the self-cleavage stood at 0.58.

Regarding U122C A135U G138A, the self-cleavage was found to be 0.68.

Take A111U A125G A140G: the self-cleavage was found to be 0.01.

Take A111G A114U A117G: the self-cleavage is 0.02.

A126G U130C U132C: the self-cleavage was determined as 0.79.

For A110G A114G A140U, the self-cleavage was found to be 0.05.

In the case of A114G A117G U132C, the self-cleavage was found to be 0.14.

As to C105U A126G U132C, the self-cleavage came out at 0.13.

On to A110C C112A A140G, for which the self-cleavage was 0.

Consider A118G U127C A134U, for which the self-cleavage worked out at 0.21.

For A111G A125C U130C G138A, the self-cleavage stood at 0.01.

Regarding U108A U127C A129G U131C, the self-cleavage was 0.

For A110G A116G A125U, the self-cleavage amounted to 0.13.

As to G115A U127C A140G, the self-cleavage was determined as 0.09.

Take A125G A134G A135G: the self-cleavage came to 0.56.

With A118G U120A U122C U131C A140G, the self-cleavage was found to be 0.76.

Turning to A110G U127C A134G, the self-cleavage was found to be 0.07.

With A114U U122A U131C, the self-cleavage was 0.03.

Turning to A111G A117G U120C, the self-cleavage is 0.02.

As for A110G A111G U130G, the self-cleavage stood at 0.01.

On to A114C A116G A118G, for which the self-cleavage stood at 0.

With A118U U122A U127C, the self-cleavage amounted to 0.57.

In the case of A114U U120C U139G, the self-cleavage was found to be 0.05.

Regarding A116G U122A U130G, the self-cleavage came out at 0.53.

In the case of A118G A126G U131C, the self-cleavage came to 0.26.

For U108C U122C U132C, the self-cleavage turned out to be 0.01.

Consider A110G G123A U131C, for which the self-cleavage was 0.09.

Turning to A126G A129G A135U, the self-cleavage amounted to 1.22.

With U122C U127C U131A, the self-cleavage came to 0.82.

For A110G A129G A140G, the self-cleavage is 0.08.

As for A116G U122C U127A, the self-cleavage was determined as 1.18.

Take U122A U130C U132C: the self-cleavage turned out to be 0.84.

In the case of U108C A118U U131C, the self-cleavage came out at 0.

As to C109U U131C U133A, the self-cleavage turned out to be 0.47.

Turning to G106U U108C A134G, the self-cleavage came out at 0.

With A110G U130C U139C, the self-cleavage was 0.08.

Take U130C U131C G136A: the self-cleavage was determined as 2.13.

Consider U124C A125U U132C, for which the self-cleavage stood at 1.58.

Take A110U A116G U127C: the self-cleavage came out at 0.02.

Regarding A110G A116G A135G, the self-cleavage stood at 0.09.

Take A116G U122C U131A: the self-cleavage turned out to be 0.3.

Consider A111G A117G A126G, for which the self-cleavage came to 0.

Regarding A116G A126G C128U, the self-cleavage turned out to be 0.07.

On to A116G A118G U120C, for which the self-cleavage was 0.23.

Regarding A111G A117G U122C U130G, the self-cleavage is 0.

The variants in a further data set derive from B2. The description is as above.
Take G1A A14C C18G U20C U32A U34C: the self-cleavage turned out to be 0.04.

G1A C8A A25G: the self-cleavage is 0.15.

G1A G2U C10A A24U G29A C37G U43A: the self-cleavage is 0.01.

As for G1A G7A A25U G35U, the self-cleavage worked out at 0.23.

In the case of G1A C13G C18U G22C A26U, the self-cleavage was 0.17.

As to G1A C23U U28C, the self-cleavage was determined as 1.12.

Take G1A C10A G40C: the self-cleavage worked out at 0.04.

In the case of G1A C10A G40A, the self-cleavage was found to be 0.

In the case of G1A A6U U32A, the self-cleavage is 0.07.

Consider G1A A24U G30U, for which the self-cleavage stood at 1.72.

For G1A G22C G36C, the self-cleavage is 0.1.

In the case of G1A C13A A26C G27U G44C, the self-cleavage worked out at 0.12.

Take G1A C10G G36A G44U: the self-cleavage was 0.

Regarding G1A A14G G29U G40A, the self-cleavage turned out to be 0.09.

Consider G1A G22C G40U C42A G44A, for which the self-cleavage is 0.02.

On to G1A G2A C13G A14G G17A, for which the self-cleavage was 0.53.

As to G1A A16C G36C, the self-cleavage amounted to 0.15.

With G1A G7C C10A C13A G30A, the self-cleavage stood at 0.1.

With G1A A4G U34C, the self-cleavage stood at 0.09.

As to G1A C8G C15A A26U, the self-cleavage came to 0.03.

With G1A A4U C15G U43G, the self-cleavage was found to be 0.

G1A A6G U20C U32C G40C: the self-cleavage worked out at 0.08.

For G1A A6U C8A A25G A26C C31A, the self-cleavage came out at 0.8.

G1A A25C G29A G36A A39C: the self-cleavage was 0.08.

As for G1A A14U U32G, the self-cleavage stood at 0.05.

Consider G1A C3U C18G U32G C46A, for which the self-cleavage was 0.2.

Regarding G1A U9G G22U, the self-cleavage was 0.15.

For G1A G36A G40U, the self-cleavage was 0.14.

In the case of G1A C10A C37U A39G, the self-cleavage is 0.03.

As to G1A G29A U32G G35U U38G U43A C46A, the self-cleavage was 0.01.

On to G1A U20A A26U A39C G40A, for which the self-cleavage turned out to be 0.07.

For G1A G21A A25G, the self-cleavage was determined as 2.77.

As to G1A G29A C42A, the self-cleavage is 0.13.

Turning to G1A C8U C18G G19C G44U, the self-cleavage stood at 0.25.

In the case of G1A A26U G29A A39G, the self-cleavage was determined as 0.13.

Take G1A A6C C13G G22C C23A: the self-cleavage was 0.11.

Turning to G1A A6G C18A U20A U34C C37A U38G, the self-cleavage worked out at 0.01.

As to G1A A12C C23A G33U, the self-cleavage is 0.01.

As for G1A C13A C31G G40C, the self-cleavage is 0.02.

As for G1A G5A C42A, the self-cleavage is 0.13.

Consider G1A A11G C18G, for which the self-cleavage worked out at 0.04.

Take G1A U20A G29C G44A: the self-cleavage came to 0.14.

With G1A C15G G30C G44C, the self-cleavage stood at 0.03.

Turning to G1A U9G A25C C37A, the self-cleavage is 0.18.

For G1A G22C G33C U34A C37G A41U, the self-cleavage was determined as 0.02.

For the variant G1A G21A A24G U28C U32G A39G C45G, the self-cleavage stood at 0.04.

Turning to G1A G19C G30A C42U, the self-cleavage was determined as 1.44.

In the case of G1A G2C A41C C42A, the self-cleavage stood at 0.06.

G1A A6C U9A G21U: the self-cleavage was 0.08.

Consider G1A G2A A26U C31G G35C C45U, for which the self-cleavage is 0.29.

In the case of G1A U9G A24C A25G G27A, the self-cleavage came to 0.12.

Turning to G1A A12U G36U A39U, the self-cleavage was determined as 0.22.

Take G1A G5U G17U G33U: the self-cleavage was 0.07.

As to G1A G2C C10U G17A, the self-cleavage turned out to be 0.03.

In the case of G1A G40U A41C C46A, the self-cleavage amounted to 0.05.

With G1A C10A A16U C37U U38A A39G, the self-cleavage was 0.05.

As to G1A A12U C45A, the self-cleavage was determined as 0.35.

On to G1A C3A A16C G17A G21U U38C, for which the self-cleavage was found to be 0.99.

With G1A C13U G22C A26G U28C A39G, the self-cleavage turned out to be 0.09.

Take G1A C8G C15A C45U: the self-cleavage came out at 0.4.

Regarding G1A C10A A26C A39U A41U, the self-cleavage came out at 0.58.

For G1A A11G U34C, the self-cleavage came out at 0.11.

On to G1A G7A G21U, for which the self-cleavage is 0.45.

As for G1A G29C C45U C46A, the self-cleavage worked out at 2.98.

As for G1A A6G G29C C31G, the self-cleavage was determined as 0.05.

With G1A A25U G40C, the self-cleavage was 0.06.

As to G1A G2C G5A G27U A39G, the self-cleavage is 0.19.

Regarding G1A G7C A24U G36U, the self-cleavage was 0.29.

For G1A A26G G35A, the self-cleavage was 0.12.

On to G1A G7C C18U C46U, for which the self-cleavage was determined as 0.39.

G1A G21U C23A A26U: the self-cleavage was determined as 1.67.

On to G1A G2A C45A, for which the self-cleavage came out at 0.76.

G1A A6C G7C: the self-cleavage came to 0.06.

In the case of G1A C10A A26U C37U U43C, the self-cleavage is 0.02.

As to G1A C15U G36A, the self-cleavage amounted to 0.05.

On to G1A G5A U28A U38A, for which the self-cleavage came to 0.06.

For the variant G1A A12G C37A C46G, the self-cleavage is 0.07.

Consider G1A A26C G30A G33A C45G, for which the self-cleavage is 0.15.

In the case of G1A A25C G35U C37U A39G, the self-cleavage was 0.

On to G1A G40C C45A, for which the self-cleavage stood at 0.02.

G1A C10G C15U A25C U32A U43C: the self-cleavage turned out to be 0.01.

As to G1A G30U U32C G35C C42A, the self-cleavage was determined as 0.04.

Regarding G1A A12C G33U, the self-cleavage stood at 0.05.

On to G1A G19U G22U, for which the self-cleavage was 0.18.

As to G1A U9C A39G, the self-cleavage was found to be 0.04.

Turning to G1A G21C C23A G35C, the self-cleavage was found to be 0.08.

Turning to G1A A4G G33C U34A C42U, the self-cleavage was determined as 0.04.

G1A A14C A41C: the self-cleavage came to 0.02.

Take G1A G2A A4U G30U G36U C37A: the self-cleavage was determined as 1.93.

With G1A C13A G19A C23G A25U G33C, the self-cleavage was determined as 0.18.

As to G1A G5A U9A U38G, the self-cleavage came to 1.03.

As to G1A G29U C31U, the self-cleavage came to 0.28.

Turning to G1A G30A U43G, the self-cleavage turned out to be 0.

Consider G1A G5A C8G G21A U34C, for which the self-cleavage came out at 0.11.

Take G1A G19A C23A: the self-cleavage amounted to 1.61.

Turning to G1A A11U A14C G22U A39U C42G, the self-cleavage was 0.02.

Consider G1A U9A A39U, for which the self-cleavage was determined as 0.16.

As for G1A G2U G35A G36U, the self-cleavage turned out to be 0.07.

G1A A4C C18A G21A G22U A39U C46A: the self-cleavage was found to be 0.03.

Regarding G1A A11U G33C C37U, the self-cleavage worked out at 0.

In the case of G1A A6U G17U A39G, the self-cleavage came to 0.06.

Regarding G1A A25G G30C G40C, the self-cleavage is 0.04.

Consider G1A C3U A6G, for which the self-cleavage is 0.36.

For the variant G1A A11U U32C G44A, the self-cleavage was determined as 0.04.

For the variant G1A A14U C45U, the self-cleavage was found to be 0.06.

G1A G22C A39C: the self-cleavage was 0.06.

For G1A U9G U20A G33U G35C C42G, the self-cleavage is 0.03.

As for G1A G7A A41U, the self-cleavage came to 0.39.

As for G1A A25U A26U A39C, the self-cleavage came to 0.04.

For G1A G27A C37A A39C G40U C45U, the self-cleavage came out at 0.03.

With G1A C15G G30U, the self-cleavage turned out to be 0.07.

On to G1A U9C C18U U20C G40A, for which the self-cleavage is 0.04.

In the case of G1A A4G A11G C42A, the self-cleavage worked out at 0.02.
